The campaign covered roughly 39,000 compounds. About 220 (0.56%) showed activity. The list shows a part of the results.

This note sets out measurements from the supplement of paper PMC9446081.
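Also: static incubation at 37 °C against the wild-type strain, values averaged over two biological replicates.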

The test concerns Escherichia coli K-12 BW25113. Nature of the test: relative growth (OD600 normalised to plate interquartile mean) (fraction); higher = less growth inhibition, active = 0.2 or less. The following applies: 50 µM; LB; incubation time: overnight (16-24 h).
As to `C[C@H]1CN([C@@H](C)CO)C(=O)c2cc(-c3ccncc3)cnc2O[C@@H]1CN(C)C(=O)Nc1ccc2c(c1)OCO2`, the relative growth is inactive: 0.976.

Consider `COc1ccc(CN(C)C[C@@H]2OCCCC[C@H](C)Oc3ccc(NC(=O)NC(C)C)cc3C(=O)N([C@H](C)CO)C[C@H]2C)cc1`, for which the relative growth was inactive: 0.996.

For `Cc1ccc(S(=O)(=O)N(C)C[C@H]2Oc3c(NS(=O)(=O)c4ccc(F)cc4)cccc3C(=O)N([C@@H](C)CO)C[C@H]2C)cc1`, the relative growth is inactive: 1.03.

`Cn1cnc(S(=O)(=O)N2C[C@@H](O)COC[C@@H]3O[C@@H](CC(=O)NC4Cc5ccccc5C4)CC[C@H]32)c1`: the relative growth was inactive: 0.983.

Regarding `C[C@@H]1CN([C@@H](C)CO)C(=O)c2cccc(NC(=O)Nc3ccc(C(F)(F)F)cc3)c2O[C@H]1CN(C)C(=O)NC1CCCCC1`, the relative growth was inactive: 0.741.

For `C[C@H](CO)N1C[C@H](C)[C@@H](CN(C)C(=O)NC2CCCCC2)Oc2c(NC(=O)Nc3cccc4ccccc34)cccc2C1=O`, the relative growth is inactive: 0.995.

Regarding `COc1ccc([C@@H]([C@H](Cc2ccccc2)OC(C)=O)N2C[C@H]3[C@H]([C@@H](OC(C)=O)c4ccccc4)ON(C)[C@H]3[C@@H]2Cc2ccccc2)cc1`, the relative growth was inactive: 0.99.

In the case of `C[C@H](CO)N1C[C@H](C)[C@@H](CN(C)C(=O)Nc2cccc3ccccc23)Oc2ccc(NC(=O)Cn3cnnn3)cc2C1=O`, the relative growth was inactive: 1.01.

For `O=C(CN1CCOCC1)N[C@H]1CC[C@@H](CCNC(=O)C2CCC2)O[C@H]1CO`, the relative growth was inactive: 1.04.

With `C[C@H](CO)N1C[C@H](C)[C@@H](CN(C)C)OCCCC[C@H](C)Oc2ccc(NC(=O)Nc3ccc(C(F)(F)F)cc3)cc2C1=O`, the relative growth was inactive: 0.994.

With `C[C@@H]1CCCCO[C@@H](CN(C)C(=O)CCCN(C)C)[C@H](C)CN([C@H](C)CO)C(=O)c2cc(N(C)C)ccc2O1`, the relative growth was inactive: 1.01.

With `C[C@@H]1CCCCO[C@@H](CN(C)C(=O)CCC(F)(F)F)[C@@H](C)CN([C@H](C)CO)C(=O)c2cc(NS(=O)(=O)c3ccc(Cl)cc3)ccc2O1`, the relative growth was inactive: 0.925.

On to `C[C@@H]1CCCCO[C@H](CN(C)C(=O)Nc2ccc(C(F)(F)F)cc2)[C@H](C)CN([C@@H](C)CO)C(=O)c2cc(NS(=O)(=O)c3ccc(F)cc3)ccc2O1`, for which the relative growth was inactive: 1.01.

Take `Cc1noc(C)c1NC(=O)N(C)C[C@H]1Oc2ccc(NC(=O)Nc3ccc(C(F)(F)F)cc3)cc2C(=O)N([C@@H](C)CO)C[C@@H]1C`: the relative growth was inactive: 0.98.

Take `Cc1cc(=O)[nH]c(=S)[nH]1`: the relative growth is inactive: 1.19.

Regarding `CC(C)NC(=O)N(C)C[C@@H]1Oc2ccc(NC(=O)Cn3cnnn3)cc2C(=O)N([C@H](C)CO)C[C@H]1C`, the relative growth is inactive: 0.977.

In the case of `COc1ccc(C#Cc2cccc(-c3nc(C(=O)N4CCN(Cc5ccccc5)CC4)cc4c3[C@H](CCO)N(S(=O)C(C)(C)C)C4)c2)cc1OC` (some centres not stated), the relative growth was inactive: 1.05.

Regarding `C[C@H](CO)N1C[C@H](C)[C@H](CN(C)Cc2ccccc2)Oc2ccc(NC(=O)Nc3cccc4ccccc34)cc2CC1=O`, the relative growth is inactive: 1.03.

On to `C[C@H]1CCCCO[C@@H](CN(C)Cc2ccc3c(c2)OCO3)[C@@H](C)CN([C@@H](C)CO)C(=O)c2cc(NC(=O)C3CCCCC3)ccc2O1`, for which the relative growth was inactive: 0.979.

For the molecule `O=C(C[C@@H]1CC[C@H](NS(=O)(=O)c2ccccc2)[C@H](CO)O1)NCc1ccncn1`, the relative growth was inactive: 0.989.

With `Cc1noc(C)c1NC(=O)N(C)C[C@H]1Oc2ccc(NC(=O)C3CC3)cc2C(=O)N([C@H](C)CO)C[C@@H]1C`, the relative growth was inactive: 0.976.

Take `COc1ccc(NC(=O)Nc2ccc3c(c2)C(=O)N([C@H](C)CO)C[C@H](C)[C@@H](CN(C)CC2CCCCC2)OCCCC[C@H](C)O3)cc1`: the relative growth is inactive: 0.965.

Regarding `C[C@H](CO)N1C[C@H](C)[C@H](CN(C)S(=O)(=O)c2ccccc2)Oc2ccc(NC(=O)Cc3ccccc3)cc2C1=O`, the relative growth is inactive: 1.

Consider `COc1cccc(S(=O)(=O)Nc2ccc3c(c2)OC[C@H](C)N(C(=O)Cc2cccnc2)C[C@@H](C)[C@@H](OC)CN(C)C3=O)c1`, for which the relative growth was inactive: 0.978.

`Cc1noc(C)c1S(=O)(=O)Nc1ccc2c(c1)CC(=O)N([C@@H](C)CO)C[C@@H](C)[C@@H](CN(C)S(=O)(=O)c1ccc(Cl)cc1)O2`: the relative growth was inactive: 1.04.

For `COc1ccc(NC(=O)N(C)C[C@H]2OCCCC[C@@H](C)Oc3ccc(NC(=O)NC(C)C)cc3C(=O)N([C@@H](C)CO)C[C@H]2C)cc1`, the relative growth was inactive: 1.

In the case of `CSc1cccc(NC(=O)/C=C/c2ccc(C(C)C)cc2)c1`, the relative growth was inactive: 1.05.

As for `COc1ccc(C#Cc2cnc3c(c2)C(=O)N([C@H](C)CO)C[C@@H](C)[C@H](CN(C)CC2CCOCC2)O3)cc1`, the relative growth was inactive: 0.995.

For `C[C@H](CO)N1C[C@H](C)[C@H](CN(C)Cc2ccccc2)Oc2ccc(NC(=O)Cn3cnnn3)cc2C1=O`, the relative growth is inactive: 1.03.

Turning to `COc1ccccc1NC(=O)N(C)C[C@@H]1Oc2ncc(Br)cc2C(=O)N([C@H](C)CO)C[C@H]1C`, the relative growth is inactive: 1.

Consider `Cc1ccc(S(=O)(=O)N2C[C@@H](O)COC[C@@H]3O[C@H](CC(=O)NCc4ccc(Cl)c(Cl)c4)CC[C@H]32)cc1`, for which the relative growth is inactive: 1.

Regarding `C[C@H](CO)N1C[C@H](C)[C@@H](CN(C)C(=O)Nc2ccccc2)Oc2cc(C#C[C@@H](C)O)ccc2S1(=O)=O`, the relative growth was inactive: 0.99.

As for `O=C(C[C@H]1CC[C@H](NC(=O)C2CC2)[C@H](CO)O1)NCCCN1CCOCC1`, the relative growth is inactive: 0.992.

As for `CCCNC(=O)N(C)C[C@@H]1Oc2cc(-c3ccc(C)cc3)ccc2S(=O)(=O)N([C@@H](C)CO)C[C@@H]1C`, the relative growth was inactive: 1.

In the case of `COc1ccc(CN(C)C[C@@H]2OCCCC[C@H](C)Oc3ccc(NC(=O)Nc4ccc(C(F)(F)F)cc4)cc3C(=O)N([C@H](C)CO)C[C@@H]2C)cc1`, the relative growth is inactive: 0.969.

As for `C[C@@H]1CCCCO[C@@H](CN(C)S(=O)(=O)c2ccccc2)[C@H](C)CN([C@@H](C)CO)C(=O)c2cc(NC(=O)c3ccccc3)ccc2O1`, the relative growth is inactive: 1.01.

On to `C[C@H]1CN([C@@H](C)CO)S(=O)(=O)c2ccc(C#CC3CC3)cc2O[C@H]1CN(C)C(=O)C1CCCCC1`, for which the relative growth is inactive: 1.01.

On to `C[C@@H]1CN([C@H](C)CO)C(=O)c2cc(NC(=O)Nc3ccc4c(c3)OCO4)ccc2O[C@@H](C)CCCCO[C@@H]1CN(C)C(=O)NC1CCCCC1`, for which the relative growth is inactive: 1.04.

Regarding `CO[C@H]1CN(C)C(=O)c2cc(NS(C)(=O)=O)ccc2OC[C@@H](C)N(C(=O)C2CCOCC2)C[C@@H]1C`, the relative growth was inactive: 1.

Turning to `CC(C)NC(=O)Nc1cccc2c1O[C@H](CN(C)C(=O)Nc1ccc3c(c1)OCO3)[C@H](C)CN([C@H](C)CO)C2=O`, the relative growth was inactive: 0.997.

As for `NC(=O)[C@@H]1CCOC1`, the relative growth is inactive: 0.953.

`C[C@@H]1CN([C@H](C)CO)C(=O)Cc2cc(NC(=O)C3CC3)ccc2O[C@H]1CN(C)Cc1ccc(Oc2ccccc2)cc1`: the relative growth was inactive: 0.988.

On to `COc1ccccc1OCC(O)CO` (configuration not stated), for which the relative growth was inactive: 1.11.

As for `C[C@H]1CN([C@@H](C)CO)C(=O)c2cccc(NC(=O)CCCCCC(=O)Nc3ccccc3N)c2O[C@H]1CN(C)C(=O)Nc1ccc(F)cc1`, the relative growth was inactive: 0.959.

With `COc1ccc(NC(=O)Nc2cccc3c2O[C@H](CN(C)CC2CCCCC2)[C@@H](C)CN([C@@H](C)CO)C3=O)cc1`, the relative growth was inactive: 0.981.

Regarding `CC(C)CC#Cc1cnc2c(c1)C(=O)N([C@@H](C)CO)C[C@@H](C)[C@@H](CN(C)S(=O)(=O)c1ccccc1)O2`, the relative growth was inactive: 0.993.

Take `C[C@H]1CN([C@@H](C)CO)C(=O)Cc2cc(NC(=O)CCC(F)(F)F)ccc2O[C@@H]1CN(C)Cc1ccc(-c2ccccc2)cc1`: the relative growth is inactive: 1.02.

On to `COc1ccc(S(=O)(=O)Nc2ccc3c(c2)C(=O)N([C@@H](C)CO)C[C@H](C)[C@@H](CN(C)C(=O)NC(C)C)O3)cc1`, for which the relative growth was inactive: 0.999.

On to `C[C@H](CO)N1C[C@H](C)[C@H](CN(C)S(=O)(=O)c2ccccc2)Oc2cc(Br)ccc2S1(=O)=O`, for which the relative growth was inactive: 0.929.

As for `Cc1noc(C)c1S(=O)(=O)Nc1ccc2c(c1)C(=O)N([C@@H](C)CO)C[C@H](C)[C@H](CN(C)C(=O)Nc1ccccc1)OCCCC[C@H](C)O2`, the relative growth is inactive: 1.01.

As to `CN1C(=O)c2cc(NC(=O)c3cnccn3)ccc2OC[C@H]2O[C@H](CC(=O)NCC3CCCCC3)CC[C@@H]21`, the relative growth was inactive: 1.01.

Turning to `Cc1noc(C)c1NC(=O)N(C)C[C@H]1Oc2ccc(NC(=O)Cn3cnnn3)cc2C(=O)N([C@@H](C)CO)C[C@H]1C`, the relative growth was inactive: 0.984.

For the molecule `C[C@@H]1CN([C@@H](C)CO)C(=O)c2cc(NC(=O)NC3CCCCC3)ccc2O[C@@H](C)CCCCO[C@@H]1CN(C)Cc1ccc(C(=O)O)cc1`, the relative growth is inactive: 1.03.

Regarding `COc1ccc(C#Cc2ccc3c(c2)[C@]2(C(=O)N3)[C@H](c3ccc(O)cc3)N3[C@H](c4ccccc4)[C@H](c4ccccc4)OC(=O)[C@H]3[C@@H]2C(=O)N2CCN(c3ncccn3)CC2)cc1`, the relative growth was inactive: 1.03.

Turning to `C[C@H]1CN([C@@H](C)CO)C(=O)c2cccc(NS(=O)(=O)c3ccc(Cl)cc3)c2O[C@@H]1CN(C)Cc1ccc(Oc2ccccc2)cc1`, the relative growth is inactive: 1.01.

In the case of `C[C@H]1CCCCO[C@H](CN(C)S(=O)(=O)c2ccc(F)cc2)[C@@H](C)CN([C@@H](C)CO)C(=O)c2cc(NS(=O)(=O)c3ccc(Cl)cc3)ccc2O1`, the relative growth was inactive: 1.06.

Take `COc1ccc(NC(=O)N(C)C[C@H]2Oc3ccc(NC(=O)Nc4cccc5ccccc45)cc3C(=O)N([C@@H](C)CO)C[C@H]2C)cc1`: the relative growth was inactive: 1.02.
